Consider 83 variants from the RNAGym collection of RNA variant scans (doi:10.1093/nar/gkz1192).

Read counts are not given, so values of variants with three or more changes are uncertain.

The chains are these.
B1: CPEB3 Ribozyme (parent)
chain: UAACAGGGGGCCACAGCAGAAGCGUUCACGUCGCAGCCCCUGUCAGAUUCUGGUGAAUCUGCGAAUUCUGCUGUAUAUCUC

Variants of B1 are the subject of this series. The series is described as follows: self-cleavage, relative activity (ratio to wild type); higher = more cleavage; in vitro, sequencing. The procedure, abridged:
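After error-prone PCR and barcoding, CPEB3 ribozyme mutant libraries were transcribed with T7 RNA polymerase at 37°C for 5 hours, then given 15 min with DNase I before an EDTA stop, and they cleaved during both steps. Reverse transcription with template switching preceded Illumina sequencing. Relative activity divides a variant's cleaved/total read fraction by the unmutated ribozyme's. At least 5 reads were required per variant, and three batches were averaged.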
Take U1C A21G U31C A56U U60C: the self-cleavage stood at 0.06.

Regarding U1C A18G U54G, the self-cleavage is 0.35.

With U1C A20G U48C, the self-cleavage was 0.36.

Regarding U1C A18G C32A C37A C50U, the self-cleavage was 0.27.

For the variant U1C A15U A77U, the self-cleavage was 0.81.

As for U1C A18C C23U C38G A47G U49C A56U, the self-cleavage amounted to 0.22.

As for U1C A20G U26A U80C, the self-cleavage stood at 0.63.

As for U1C A15G A18U A20G C62U, the self-cleavage is 0.05.

With U1C A20G A47U U60C, the self-cleavage was 0.1.

For the variant U1C A20G U51A U74A U80C, the self-cleavage amounted to 0.97.

On to U1C A15U U54C U66C U69C, for which the self-cleavage was found to be 0.11.

As for U1C A20G A28C G30C A45U U78C, the self-cleavage turned out to be 0.21.

As for U1C A18U A35G A45U, the self-cleavage was 0.22.

As for U1C A20G U51C U80C, the self-cleavage was determined as 0.98.

Regarding U1C A15G A45U A56G, the self-cleavage is 0.25.

Regarding U1C A20U U31C A77U, the self-cleavage came out at 0.14.

For U1C A18G U69C U72C, the self-cleavage stood at 0.77.

Regarding U1C A20U U41C U43C G61A U80C, the self-cleavage turned out to be 0.07.

As to U1C A18G A21G U26A U78C, the self-cleavage was 0.2.

Take U1C A18G C39U G46A A64G U69C: the self-cleavage was determined as 0.12.

Consider U1C A15C A47G A64G, for which the self-cleavage was found to be 0.22.

Turning to U1C A28U A45G U48C U60A U72C, the self-cleavage was 0.07.

On to U1C A15U A20G U69C, for which the self-cleavage was found to be 0.18.

With U1C A18U A56U, the self-cleavage came to 0.35.

U1C A28C A45U U74C: the self-cleavage is 0.11.

U1C A20G U25C G30C A47G: the self-cleavage worked out at 0.35.

U1C A18C U25A A45G: the self-cleavage was 0.06.

For the variant U1C A13U U31A A45G U49C A65G, the self-cleavage came to 0.16.

For U1C A15G A20U U25C A77U, the self-cleavage came out at 0.05.

U1C A13U U60C U76C: the self-cleavage is 0.38.

U1C A18G U51A A56U A64G: the self-cleavage is 0.38.

As to U1C A28U A47G U51A U60C, the self-cleavage worked out at 0.12.

On to U1C A21G U60A, for which the self-cleavage was 0.1.

As for U1C A21G U31A U54A A56C U66C U69A, the self-cleavage came to 0.03.

For U1C A21G A35U U51C U74C, the self-cleavage stood at 0.12.

As for U1C A18U C40A U58A U60A A75U, the self-cleavage is 0.05.

Consider U1C A18C A45G U54A G70A, for which the self-cleavage is 0.29.

For U1C A20G G42A U66C, the self-cleavage was determined as 0.33.

With U1C A15G C37A U54C U74C, the self-cleavage amounted to 0.08.

On to U1C A21U U26A U51C U78C, for which the self-cleavage amounted to 0.22.

With U1C A20C U31C, the self-cleavage was determined as 0.22.

Take U1C A20G U26C U31A C40A U72A: the self-cleavage was determined as 0.04.

As for U1C A20G U26A U72A, the self-cleavage was found to be 0.46.

Consider U1C A20U C29U A47G U72C U76C, for which the self-cleavage was determined as 0.15.

Take U1C A21G A64G: the self-cleavage stood at 0.43.

U1C A28G A56G: the self-cleavage worked out at 0.37.

Regarding U1C A15U U54C U69C, the self-cleavage is 0.23.

Consider U1C A28U A64G A65G U72C, for which the self-cleavage is 0.07.

For U1C A20G C37U U54G U60A U78C, the self-cleavage amounted to 0.1.

Regarding U1C A28U C39A U78C, the self-cleavage turned out to be 0.3.

As for U1C A20U U72A, the self-cleavage was 0.26.

Take U1C A18U U41C A45G A64G U78A: the self-cleavage was 0.19.

Take U1C A18G U58C A64U: the self-cleavage stood at 0.14.

In the case of U1C A13U U51A G63A U67C, the self-cleavage came out at 0.22.

Take U1C A18G C37A: the self-cleavage turned out to be 0.31.

For the variant U1C A21G U58A A77G, the self-cleavage is 0.3.

With U1C A15U A18G U41A A64G G73A, the self-cleavage worked out at 0.33.

As for U1C A18G C68A, the self-cleavage is 0.23.

U1C A21G A28G U43C C44G U60A: the self-cleavage came to 0.05.

As to U1C A18G C39G U41C A57U, the self-cleavage was determined as 0.25.

As to U1C A28G G42A, the self-cleavage came to 0.31.

On to U1C A28U G42C U80C, for which the self-cleavage came to 0.3.

For U1C A18U A28G, the self-cleavage stood at 0.09.

Take U1C A20U A28G U72C: the self-cleavage amounted to 0.09.

U1C A21G U66C U72C U80C: the self-cleavage is 0.74.

As for U1C A21C U49C U60C, the self-cleavage was determined as 0.06.

In the case of U1C A15G A18G, the self-cleavage turned out to be 0.4.

As to U1C A20G A21C C40U U51A U66C U80C, the self-cleavage stood at 0.24.

Consider U1C A18G A57G C62U A65G U76A, for which the self-cleavage amounted to 0.15.

On to U1C A15G C23U A56U U67C, for which the self-cleavage was 0.16.

Turning to U1C A28G U54A A64U A65G, the self-cleavage was found to be 0.17.

On to U1C A18U G46C G52U A64U, for which the self-cleavage is 0.12.

Consider U1C A28G U80C, for which the self-cleavage amounted to 0.83.

Turning to U1C A18G A28G, the self-cleavage was determined as 0.29.

Consider U1C A21G C34A U60C U66C U72C U80C, for which the self-cleavage came to 0.06.

As for U1C A15G U41G A56G C71A U78C, the self-cleavage was determined as 0.04.

As for U1C A15G A18G A28G U43C U74A, the self-cleavage is 0.07.

With U1C A20U A35G G36A A64U U67C, the self-cleavage was determined as 0.11.

With U1C A15G U26C A28G A56U U80C, the self-cleavage worked out at 0.06.

Turning to U1C A20G G33A, the self-cleavage stood at 0.24.

Take U1C A13U U26A G46U A65G: the self-cleavage was determined as 0.18.

Consider U1C A15U A21U A47G G70A, for which the self-cleavage was 0.05.

With U1C A20U U31G A45U A64C U67C, the self-cleavage worked out at 0.07.
